According to the supplement of paper PMC4967469:
By IC50 is meant the dose at which the fit gives 50% viability; a limit (>, <) means that the fit lies beyond the doses tested. The AUC spans the tested range (256-fold, ending at the top dose) of the same fit; values near 1 show little effect.

Compound: CC[C@H](Nc1ncnc2[nH]cnc12)c1nc2cccc(F)c2c(=O)n1-c1ccccc1 [CAL-101]
Experiment: Viability of human cancer cell lines after 72 h of drug (GDSC screen)
Experimental: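 Human cancer cell lines in 384-well plates, medium with 10% serum, drug for 72 h over a 256-fold dose range (nine 2-fold or five 4-fold steps up to the top dose). Adherent lines were fixed and stained with the nucleic acid dye Syto60, suspension lines read with resazurin; signal relative to control wells, capped at 0 and 100%. One two-parameter sigmoid per drug and line, fitted in a mixed model over all curves with the slope shared within a line.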

Cell Line | AUC | IC50 [µM]
PA-1 (ovary, adherent, top dose 20 µM) | 0.908 | 17
PA-TU-8902 (pancreas, adherent, top dose 20 µM) | 0.968 | > 20
PA-TU-8988T (pancreas, adherent, top dose 20 µM) | 0.969 | > 20
PANC-02-03 (pancreas, adherent, top dose 20 µM) | 0.952 | > 20
PANC-03-27 (pancreas, adherent, top dose 20 µM) | 0.899 | > 20
PANC-04-03 (pancreas, adherent, top dose 20 µM) | 0.972 | > 20
PANC-08-13 (pancreas, adherent, top dose 20 µM) | 0.904 | > 20
PANC-10-05 (pancreas, adherent, top dose 20 µM) | 0.836 | 19.1
PC-3 [JPC-3] (lung adenocarcinoma, adherent, top dose 20 µM) | 0.924 | > 20
PC-14 (lung adenocarcinoma, adherent, top dose 20 µM) | 0.985 | > 20
PCI-4B (head and neck, adherent, top dose 20 µM) | 0.975 | > 20
PCI-6A (head and neck, adherent, top dose 20 µM) | 0.98 | > 20
PCI-15A (head and neck, adherent, top dose 20 µM) | 0.975 | > 20
PCI-30 (head and neck, adherent, top dose 20 µM) | 0.98 | > 20
PCI-38 (head and neck, adherent, top dose 20 µM) | 0.983 | > 20
PE/CA-PJ15 (head and neck, adherent, top dose 20 µM) | 0.96 | > 20
PEO1 (ovary, adherent, top dose 20 µM) | 0.957 | > 20
PF-382 (T-cell lymphoblastic leukaemia, suspension, top dose 20 µM) | 0.853 | 12.6
PFSK-1 (medulloblastoma, adherent, top dose 20 µM) | 0.957 | > 20
PL4 (pancreas, adherent, top dose 20 µM) | 0.964 | > 20
PL18 (pancreas, adherent, top dose 20 µM) | 0.988 | > 20

Cell Line | AUC | IC50 [µM]
PL-21 (acute myeloid leukaemia, suspension, top dose 20 µM) | 0.714 | 5.65
PSN1 (pancreas, adherent, top dose 20 µM) | 0.961 | > 20
QGP-1 (pancreas, adherent, top dose 20 µM) | 0.951 | > 20
QIMR-WIL (acute myeloid leukaemia, suspension, top dose 20 µM) | 0.515 | 1.37
RC-K8 (B-cell lymphoma, suspension, top dose 20 µM) | 0.993 | > 20
RCC10RGB (kidney, adherent, top dose 10.24 µM) | 0.943 | > 10.2
RCC-AB (kidney, adherent, top dose 20 µM) | 0.758 | 8.98
RCC-ER (kidney, adherent, top dose 20 µM) | 0.916 | > 20
RCC-FG2 (kidney, adherent, top dose 20 µM) | 0.867 | > 20
RCC-JF (kidney, adherent, top dose 20 µM) | 0.832 | 15
RCC-JW (kidney, adherent, top dose 20 µM) | 0.889 | > 20
RCC-MF (kidney, adherent, top dose 20 µM) | 0.895 | > 20
RCM-1 (large intestine, adherent, top dose 20 µM) | 0.985 | > 20
RD (rhabdomyosarcoma, adherent, top dose 20 µM) | 0.965 | > 20
REH (B-cell leukaemia, suspension, top dose 20 µM) | 0.808 | 9.83
RERF-GC-1B (stomach, adherent, top dose 20 µM) | 0.98 | > 20
RERF-LC-KJ (lung adenocarcinoma, adherent, top dose 20 µM) | 0.965 | > 20
RERF-LC-MS (lung adenocarcinoma, adherent, top dose 20 µM) | 0.971 | > 20
RERF-LC-Sq1 (lung squamous cell carcinoma, adherent, top dose 20 µM) | 0.936 | > 20
RF-48 (stomach, adherent, top dose 20 µM) | 0.786 | 9.74
RH-1 (rhabdomyosarcoma, adherent, top dose 20 µM) | 0.951 | > 20

Cell Line | AUC | IC50 [µM]
RH-18 (rhabdomyosarcoma, adherent, top dose 20 µM) | 0.808 | 12.2
RH-41 (rhabdomyosarcoma, adherent, top dose 20 µM) | 0.992 | > 20
RKN (ovary, adherent, top dose 20 µM) | 0.879 | > 20
RKO (large intestine, adherent, top dose 20 µM) | 0.95 | > 20
RL95-2 (endometrium, adherent, top dose 20 µM) | 0.987 | > 20
RL (B-cell lymphoma, suspension, top dose 20 µM) | 0.908 | > 20
RMG-I (ovary, adherent, top dose 20 µM) | 0.849 | 18.9
RO82-W-1 (thyroid, adherent, top dose 20 µM) | 0.983 | > 20
ROS-50 (B-cell leukaemia, suspension, top dose 20 µM) | 0.975 | > 20
RPMI-2650 (head and neck, adherent, top dose 20 µM) | 0.977 | > 20
RPMI-6666 (Hodgkin lymphoma, suspension, top dose 20 µM) | 0.298 | 0.298
RPMI-7951 (melanoma, adherent, top dose 20 µM) | 0.837 | 12.9
RPMI-8226 (myeloma, suspension, top dose 20 µM) | 0.963 | > 20
RPMI-8402 (T-cell lymphoblastic leukaemia, suspension, top dose 20 µM) | 0.674 | 3.49
RPMI-8866 (chronic myeloid leukaemia, suspension, top dose 20 µM) | 0.973 | > 20
RS4-11 (leukaemia, suspension, top dose 20 µM) | 0.759 | 6.45
RT4 (bladder, adherent, top dose 20 µM) | 0.98 | > 20
RT-112 (bladder, adherent, top dose 20 µM) | 0.958 | > 20
RVH-421 (melanoma, adherent, top dose 20 µM) | 0.862 | > 20
RXF393 (kidney, adherent, top dose 20 µM) | 0.87 | > 20
Ramos-2G6-4C10 (Burkitt lymphoma, suspension, top dose 20 µM) | 0.956 | > 20

Cell Line | AUC | IC50 [µM]
SAS (head and neck, adherent, top dose 20 µM) | 0.946 | > 20
SAT (head and neck, adherent, top dose 20 µM) | 0.919 | > 20
SBC-1 (small cell lung carcinoma, suspension, top dose 20 µM) | 0.987 | > 20
SBC-3 (small cell lung carcinoma, adherent, top dose 20 µM) | 0.934 | > 20
SBC-5 (small cell lung carcinoma, adherent, top dose 20 µM) | 0.993 | > 20
SCC90 (head and neck, adherent, top dose 20 µM) | 0.738 | 8.18
SCC-3 (B-cell lymphoma, suspension, top dose 20 µM) | 0.996 | > 20
SCC-4 (head and neck, adherent, top dose 20 µM) | 0.965 | > 20
SCC-9 (head and neck, adherent, top dose 20 µM) | 0.834 | 18.5
SCC-15 (head and neck, adherent, top dose 20 µM) | 0.945 | > 20
SCC-25 (head and neck, adherent, top dose 20 µM) | 0.881 | > 20
SCH (stomach, adherent, top dose 20 µM) | 0.988 | > 20
SF126 (glioma, adherent, top dose 20 µM) | 0.951 | > 20
SF268 (glioma, adherent, top dose 20 µM) | 0.96 | > 20
SF295 (glioma, adherent, top dose 20 µM) | 0.946 | > 20
SF539 (glioma, adherent, top dose 20 µM) | 0.984 | > 20
SH-4 (melanoma, adherent, top dose 20 µM) | 0.964 | > 20
SHP-77 (small cell lung carcinoma, semi-adherent, top dose 20 µM) | 0.897 | > 20
SIG-M5 (acute myeloid leukaemia, suspension, top dose 20 µM) | 0.716 | 4.25
